The whole screen tested about 220,000 compounds, of which about 16,000 (7.3%) were called active. Inconclusive results, whose numbers are uncertain, are shown with a selection of clear calls. The call rests on the fitted dose curve; in most records, active means well fitted inhibition curve with a large enough effect (not every such curve was filed as active); inconclusive means small, poorly fitted or top-dose-only effect, or another doubt; inactive means no such curve, though single readings can be large or run the other way. Potencies of inconclusive entries are doubtful fits and often do not repeat.
target: Aldehyde dehydrogenase 1A1 (Homo sapiens) (UniProt P00352); assay: qHTS Assay for Inhibitors of Aldehyde Dehydrogenase 1 (ALDH1A1); details: Purified ALDH1A1, NADH fluorescence, propionaldehyde substrate; series mostly up to 75.3 µM
Sequence of UniProt P00352 (P00352 whole entry, looked up): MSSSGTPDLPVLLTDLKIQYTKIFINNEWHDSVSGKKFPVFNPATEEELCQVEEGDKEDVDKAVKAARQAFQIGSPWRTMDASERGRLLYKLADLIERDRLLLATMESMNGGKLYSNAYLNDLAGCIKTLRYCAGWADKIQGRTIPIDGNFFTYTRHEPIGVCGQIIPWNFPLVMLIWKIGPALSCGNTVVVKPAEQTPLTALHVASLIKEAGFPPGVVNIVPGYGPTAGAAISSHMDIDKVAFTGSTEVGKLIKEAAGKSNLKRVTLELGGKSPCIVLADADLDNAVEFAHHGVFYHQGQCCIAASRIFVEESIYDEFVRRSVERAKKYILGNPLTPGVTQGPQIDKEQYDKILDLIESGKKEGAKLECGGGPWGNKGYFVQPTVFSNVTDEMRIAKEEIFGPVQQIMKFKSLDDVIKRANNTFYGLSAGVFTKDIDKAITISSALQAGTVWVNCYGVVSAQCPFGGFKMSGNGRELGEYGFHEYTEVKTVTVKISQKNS
Potency means the concentration at half of the fitted maximal effect; tags describe the fitted curve by direction and shape.

Potency, inconclusive:
CCOc1ccccc1NC(=O)C(OC(=O)c1ccc(N(C)C)cc1)c1ccccc1 (configuration not stated) 28.2 µM [inhibitor, partial curve]
Cc1ccc(NC(=S)N(N)CCO)cc1 17.8 µM [inhibitor, single point]
O=C1C2=C(Nc3cc([N+](=O)[O-])ccc3N2)O[C@@H]1c1c[nH]c2ccc(COc3ccccc3)cc12 3.16 µM [inhibitor, single point]
COc1ccc(C(C)=O)cc1COc1ccc(Cl)c(C)c1 31.6 µM [inhibitor, single point]
O=[N+]([O-])c1ccc(-c2ccc(/C=N/Nc3nc(N4CCCC4)nc(N4CCCC4)n3)o2)cc1 39.8 µM [inhibitor, single point]
O=C(c1nn(-c2ccccc2)c(=O)c2ccccc12)N1CCN(c2ncccn2)CC1 39.8 µM [inhibitor, single point]
COc1ccc(-c2cc(C(F)(F)F)nc(NC3CCCC3)n2)cc1OC 39.8 µM [inhibitor, single point]
Nc1cc(OCC(F)(F)F)cc(OCC(F)(F)F)c1 28.2 µM [inhibitor, single point]
O=c1c2cc(N3CCOCC3)ccc2[nH]c(=S)n1CCCN1CCCCCC1 39.8 µM [inhibitor, single point]
Cc1ccc(S(=O)(=O)NC(=O)Nc2ncc3c(n2)CC(c2ccco2)CC3=O)cc1 (configuration not stated) 39.8 µM [inhibitor, single point]
Cc1ccc(C(=O)NCC(=O)OC(C)C(=O)Nc2ccc(N(C)C)cc2)cc1C (configuration not stated) 39.8 µM [inhibitor, partial curve, poor fit]
CN1C(=S)SC(N(O)C(=O)Nc2cccc3ccccc23)C1(C)C (configuration not stated) 39.8 µM [inhibitor, single point]
CC1=C(C(=O)OC(C)C)C(c2ccc(N(C)C)cc2)C2=C(CC(C)(C)CC2=O)N1 (configuration not stated) 39.8 µM [inhibitor, single point]
CCc1ccc(C(=O)/C=C/c2cnn(C)c2C)s1 35.5 µM [inhibitor, partial curve]
CCOc1ccccc1OCCCOc1ccc([N+](=O)[O-])cc1Cl 5.62 µM [inhibitor, single point]
C/C(=N\Nc1nc(-c2cc(C)ccc2C)cs1)c1cc2ccccc2oc1=O 17.8 µM [inhibitor, partial curve]
CC(=O)C1=C(C)NC(=S)NC1c1cccc([N+](=O)[O-])c1 (configuration not stated) 37.7 µM [inhibitor, single point]
CCCC(=O)Nc1cccn(Cc2ccccc2Br)c1=O 44.7 µM [inhibitor, single point]
CCN(CC)C(=O)CSc1nnc(-c2cccnc2)n1Cc1ccccc1 14.1 µM [inhibitor, partial curve]
COc1cc2[nH]c(=O)n(Cc3ccc(C(=O)NCCCN4CCN(C)CC4)cc3)c(=O)c2cc1OC 39.8 µM [inhibitor, single point]
CCN=C1S/C(=C\c2sccc2C)C(=O)N1CC 14.1 µM [inhibitor, partial curve]
CC(=O)NCCC(=O)Nc1nc(-c2cccs2)c(-c2cccs2)s1 5.62 µM [inhibitor, full curve]
COc1cc2c(cc1NC(=S)Nc1cccc(C)c1)oc1ccccc12 20 µM [inhibitor, partial curve]
O=C(N1CCN(c2ccccc2)CC1)C12CC3CC(CC(C3)C1)C2 39.8 µM [inhibitor, single point]
CSC1=NSC2=NC(=O)/C(=C/c3coc4ccc(O)cc4c3=O)C(=N)N12 31.6 µM [inhibitor, partial curve]
COc1cccc2sc(Nc3nc(C)c(C(C)=O)s3)nc12 8.91 µM [inhibitor, partial curve]
C=CCn1c(SCC(=O)c2c(N)n(C)c(=O)n(C)c2=O)nc2sc(CC)cc2c1=O 3.16 µM [inhibitor, single point]
Cn1c(N)c(C(=O)COC(=O)Cc2ccsc2)c(=O)n(C)c1=O 44.7 µM [inhibitor, single point]
Cc1cccc(N(CC(=O)NCc2ccc(F)cc2)C(=O)c2csnn2)c1C 39.8 µM [inhibitor, single point]
O=C(N/N=C/c1cc(Cl)cc([N+](=O)[O-])c1O)C1CC1 22.4 µM [inhibitor, partial curve]
CC(C(=O)NCc1ccc2c(c1)OCO2)N1c2cccc3cccc(c23)S1(=O)=O (configuration not stated) 35.5 µM [inhibitor, single point]
O=C(Nc1ccc2c(c1)OCO2)C1CCN(S(=O)(=O)c2ccc3c(c2)OCCO3)CC1 31.6 µM [inhibitor, single point]
CN(C)c1ccc(C(=O)OCc2ccccc2)cc1 28.2 µM [inhibitor, single point]
O=C(O)/C=C/C(=O)NCc1ccccc1 39.8 µM [inhibitor, single point]
CCOC(=O)c1[nH]c2cc3c(cc2c1NC(=O)CN1CCC(C)CC1)OCO3 31.6 µM [inhibitor, partial curve]
Cc1nnc(SCC(=O)NNC(=O)c2ccc(Cl)cc2)n1CC1CCCO1 (configuration not stated) 39.8 µM [inhibitor, single point]
COc1ccc(S(=O)(=O)N2CCOCC2)cc1NC(=O)CN(C)Cc1c(F)cccc1Cl 28.2 µM [inhibitor, partial curve]

Potency, inactive:
Cn1nc(-c2ccc(Cl)cc2)c2cc(C(=O)N3CCOCC3)sc21
CC[C@H]1OC(=O)[C@H](C)[C@@H](O[C@H]2C[C@@](C)(OC)[C@@H](O)[C@H](C)O2)[C@H](C)[C@@H](O[C@@H]2O[C@H](C)C[C@H](N(C)C)[C@H]2O)[C@](C)(O)C[C@@H](C)CN(C)[C@H](C)[C@@H](O)[C@]1(C)O
COc1ccc(-n2cnc3cc(C(=O)NCCN4CCOCC4)ccc32)cc1
Cc1ccc(C(=O)C(C)Sc2nnc(N)s2)cc1 (configuration not stated)
CCOc1ccc(-c2cc(C(=O)OC)[nH]n2)cc1
COC(=O)c1cccc(C23CC4(C2)[C@H](CN(C)[C@@H]4c2ccccc2)C3c2ccc(C(F)(F)F)cc2)c1 (some centres not stated)
Cc1ccc(NC(=S)NC(C)CCc2ccccc2)cc1C (configuration not stated)
Nc1nnc(SCC(=O)N2CCc3ccccc3C2)s1
Clc1cccc2sc(N3CCN(c4ccccc4)CC3)nc12
CCN(CC)S(=O)(=O)c1cccc(C(=O)OCC(=O)NC(C)c2ccccc2)c1 (configuration not stated)
COCCNC(=O)COc1ccc(OCCNC[C@H](O)COc2ccccc2)cc1
COC(=O)c1ccc(CSc2nnc(Nc3ccc(OC)cc3)s2)o1
Cc1cc(C(=O)OCC(=O)Nc2ccc(F)cc2)c(C)o1
COCCCNc1oc(COc2ccc(Cl)cc2Cl)nc1C#N
Cc1ccc2c(c1)Oc1ccc(NC(=O)CCCl)cc1C(=O)N2
S=C(NCCN1CCOCC1)Nc1ccc(Br)cc1
Cc1noc(NC(=O)c2ccccc2Cl)c1C#N
CCOCCCNC(=O)C(NC(=O)c1ccc(NC(C)=O)cc1)c1ccc(OC)cc1 (configuration not stated)
Cc1[nH]c(=O)[nH]c(=O)c1S(=O)(=O)Nc1ccc(Oc2ccccc2)cc1
COc1ccc(CCN(C(=O)c2cccc(F)c2)C2CC(=O)N(c3ccc(OC)cc3)C2=O)cc1 (configuration not stated)
O=C1CC(N2CCN(C3CC(=O)N(CCc4ccccc4)C3=O)CC2)C(=O)N1CCc1ccccc1 (configuration not stated)

Potency, active:
Cc1ccc(OCC(=O)c2cc(C)n(CC(F)(F)F)c2C)c([N+](=O)[O-])n1 20 µM
Cc1ccc(C)c(NC(=O)CSc2ccc(-c3ccco3)nn2)c1 3.16 µM
CCC1=Nc2ccccc2NC2=C1C(=O)CCC2 11.2 µM
O=C1c2ccccc2C(=O)N1CCCCN(C(=O)c1ccc([N+](=O)[O-])cc1)c1ccc(Cl)cc1 1.58 µM
C=C(C)CN(CC)C(=O)CSc1nc2ncc(Cl)cc2[nH]1 25.1 µM
COc1cc(C(=S)N2CCC(C(N)=O)CC2)ccc1O 10 µM
Cc1ccc(S(=O)(=O)Oc2ccc(/C=C3/N=C(c4ccccc4)OC3=O)cc2)cc1 8.91 µM
O=C1S/C(=C\C=C\c2ccco2)C(=O)N1c1ccc(O)cc1 17.8 µM
Cc1cc(C(=O)NC2CCCCC2)c(C)n1-c1ccc(F)cc1 14.1 µM
CSc1nc2c(c(=O)[nH]1)C(c1ccccc1Cl)CC(=O)N2 (configuration not stated) 12.6 µM
CCOC(=O)C(C)Sc1nc2c(c(=O)[nH]c(=O)n2C)n1C/C=C(/C)Cl (configuration not stated) 7.08 µM
O=C(CCc1n[nH]c(=O)[nH]c1=O)N1CCCCC1 4.47 µM
Cn1c(=O)c2c(nc(CN3CCC(C(N)=O)CC3)n2Cc2ccccc2Cl)n(C)c1=O 12.6 µM
O=C(C1=C[C@@H](C2CCCCC2)C[C@@H](OCCCCO)O1)N1CCN(Cc2ccccc2)CC1 15.8 µM
